Source: patent US11578102B2, “LAG3 binding peptides” (Leidos, Inc., priority 2020, dated 2023)
Like-named read-outs stand apart in the source and are kept apart here. At least one compound was matched to its structure with a doubt left. Residues, ends and D or L forms follow the SMILES beside them.

How the values were obtained:
LAG3:MHC [1] = test: LAG3:MHC TR-FRET Screen (Cisbio) | % Inhibition at 0.39 µM
LAG3:FGL1 [2] = test: LAG3:FGL1 TR-FRET Screen (BPS) | % Inhibition at 100 µM
LAG3:FGL1 [3] = test: LAG3:FGL1 TR-FRET Screen (BPS) | % Inhibition at 33 µM
LAG3:FGL1 [4] = test: LAG3:FGL1 TR-FRET Screen (BPS) | % Inhibition at 11 µM
LAG3:MHC [5] = test: LAG3:MHC TR-FRET Screen (Cisbio) | % Inhibition at 6.25 µM
LAG3:FGL1 [6] = test: LAG3:FGL1 TR-FRET Screen (BPS) | % Inhibition at 100 µM; remark: listed apart in the source
LAG3:FGL1 [7] = test: LAG3:FGL1 TR-FRET Screen (BPS) | % Inhibition at 33 µM; remark: listed apart in the source
LAG3:MHC [8] = test: LAG3:MHC TR-FRET Screen (Cisbio) | % Inhibition at 0.39 µM; remark: listed apart in the source
LAG3:FGL1 [9] = test: LAG3:FGL1 TR-FRET Screen (BPS) | % Inhibition at 11 µM; remark: listed apart in the source
LAG3:MHC [10] = test: LAG3:MHC TR-FRET Screen (Cisbio) | % Inhibition at 100 µM
LAG3:MHC [11] = test: LAG3:MHC TR-FRET Screen (Cisbio) | % Inhibition at 6.25 µM; remark: listed apart in the source

SMILES	LAG3:MHC TR-FRET Screen (Cisbio) | % Inhibition at 0.39 µM (LAG3:MHC [1]) [%]	LAG3:FGL1 TR-FRET Screen (BPS) | % Inhibition at 100 µM (LAG3:FGL1 [2]) [%]	LAG3:FGL1 TR-FRET Screen (BPS) | % Inhibition at 33 µM (LAG3:FGL1 [3]) [%]	LAG3:FGL1 TR-FRET Screen (BPS) | % Inhibition at 11 µM (LAG3:FGL1 [4]) [%]	LAG3:MHC TR-FRET Screen (Cisbio) | % Inhibition at 6.25 µM (LAG3:MHC [5]) [%]	LAG3:FGL1 TR-FRET Screen (BPS) | % Inhibition at 100 µM (LAG3:FGL1 [6]) [%]	LAG3:FGL1 TR-FRET Screen (BPS) | % Inhibition at 33 µM (LAG3:FGL1 [7]) [%]	LAG3:MHC TR-FRET Screen (Cisbio) | % Inhibition at 0.39 µM (LAG3:MHC [8]) [%]	LAG3:FGL1 TR-FRET Screen (BPS) | % Inhibition at 11 µM (LAG3:FGL1 [9]) [%]	LAG3:MHC TR-FRET Screen (Cisbio) | % Inhibition at 100 µM (LAG3:MHC [10]) [%]	LAG3:MHC TR-FRET Screen (Cisbio) | % Inhibition at 6.25 µM (LAG3:MHC [11]) [%]
CC[C@H](C)[C@H](NC(=O)[C@@H](NC(=O)[C@@H](NC(=O)[C@H](Cc1ccc(O)cc1)NC(=O)[C@H](Cc1ccc(O)cc1)NC(=O)[C@H](CC(=O)O)NC(=O)[C@H](CC(=O)O)NC(=O)[C@H](CCC(N)=O)NC(=O)[C@H](C)NC(=O)[C@H](Cc1ccccc1)NC(=O)[C@H](CC(=O)O)NC(=O)[C@H](CC(=O)O)NC(=O)CNC(=O)CNC(=O)[C@H](CCCNC(=N)N)NC(=O)[C@H](CCC(=O)O)NC(=O)[C@@H](N)CCCNC(=N)N)C(C)C)[C@@H](C)O)C(=O)N[C@@H](Cc1ccccc1)C(=O)N[C@@H](Cc1ccc(O)cc1)C(=O)N[C@@H](CCCNC(=N)N)C(=O)O [compound 11] (H-RERGGDDFAQDDYYVTIFYR-OH)	49	62	49	66	66						
CSCC[C@H](NC(=O)[C@H](C)NC(=O)CNC(=O)[C@H](Cc1ccccc1)NC(=O)CNC(=O)[C@H](Cc1c[nH]c2ccccc12)NC(=O)CNC(=O)[C@H](CO)NC(=O)[C@@H](NC(=O)[C@H](CO)NC(=O)CNC(=O)[C@@H](N)CCC(N)=O)[C@@H](C)O)C(=O)N[C@@H](Cc1ccc(O)cc1)C(=O)N[C@@H](CCC(=O)O)C(=O)N[C@@H](CC(C)C)C(=O)N[C@H](C(=O)N[C@@H](Cc1ccc(O)cc1)C(=O)N[C@@H](CC(=O)O)C(=O)N[C@H](C(=O)N[C@@H](Cc1ccc(O)cc1)C(=O)O)C(C)C)[C@@H](C)O [compound 16] (H-QGSTSGWGFGAMYELTYDVY-OH)	56	99	94	47	58						
CSCC[C@H](NC(=O)[C@H](Cc1ccccc1)NC(=O)[C@@H](NC(=O)[C@H](CC(C)C)NC(=O)[C@@H](NC(=O)CNC(=O)[C@H](CCC(=O)O)NC(=O)[C@H](CCC(=O)O)NC(=O)[C@H](CCSC)NC(=O)[C@H](CC(=O)O)NC(=O)[C@H](Cc1ccccc1)NC(=O)[C@H](Cc1ccc(O)cc1)NC(=O)[C@H](CC(C)C)NC(=O)[C@H](CC(=O)O)NC(=O)CNC(=O)[C@H](CC(=O)O)NC(=O)[C@H](C)NC(=O)[C@H](CC(=O)O)NC(=O)[C@@H](NC(=O)[C@@H](N)[C@@H](C)O)C(C)C)C(C)C)C(C)C)C(=O)O [compound 41] (H-TVDADGDLYFDMEEGVLVFM-OH)						99	99	2	98	50	29
CC[C@H](C)[C@H](NC(=O)[C@H](CC(=O)O)NC(=O)[C@H](CCC(N)=O)NC(=O)[C@H](CO)NC(=O)CNC(=O)[C@H](C)NC(=O)[C@@H](NC(=O)[C@H](CC(C)C)NC(=O)[C@H](Cc1ccc(O)cc1)NC(=O)[C@H](Cc1c[nH]cn1)NC(=O)[C@H](Cc1ccc(O)cc1)NC(=O)[C@H](Cc1c[nH]cn1)NC(=O)CNC(=O)[C@H](C)NC(=O)[C@@H](N)CC(C)C)[C@@H](C)O)C(=O)N[C@@H](Cc1ccc(O)cc1)C(=O)N[C@@H](CCC(=O)O)C(=O)N[C@@H](Cc1ccc(O)cc1)C(=O)N[C@@H](CC(N)=O)C(=O)N[C@@H](CC(=O)O)C(=O)O [compound 62] (H-LAGHYHYLTAGSQDIYEYND-OH)	35	7	3	5	60						
CSCC[C@H](NC(=O)[C@H](CC(=O)O)NC(=O)[C@H](CC(C)C)NC(=O)[C@H](CCC(N)=O)NC(=O)[C@H](Cc1c[nH]c2ccccc12)NC(=O)[C@H](Cc1c[nH]c2ccccc12)NC(=O)[C@@H]1CCCN1C(=O)[C@H](C)NC(=O)[C@H](CCCCN)NC(=O)[C@H](CC(=O)O)NC(=O)[C@@H](N)CCC(=O)O)C(=O)N[C@@H](CCC(=O)O)C(=O)N[C@@H](Cc1ccccc1)C(=O)N[C@@H](CCC(=O)O)C(=O)N[C@@H](Cc1ccccc1)C(=O)N[C@@H](CCCNC(=N)N)C(=O)N[C@@H](CC(C)C)C(=O)N[C@@H](CC(=O)O)C(=O)N[C@@H](CCCNC(=N)N)C(=O)N[C@H](C(=O)O)C(C)C [compound 68] (H-EDKAPWWQLDMEFEFRLDRV-OH)						97	89	24	78	70	48
CC[C@H](C)[C@H](NC(=O)[C@H](CC(=O)O)NC(=O)[C@H](CC(C)C)NC(=O)[C@@H](NC(=O)[C@H](CCC(N)=O)NC(=O)CNC(=O)[C@@H](NC(=O)[C@H](CC(=O)O)NC(=O)[C@H](Cc1ccccc1)NC(=O)[C@H](Cc1c[nH]cn1)NC(=O)[C@H](CC(=O)O)NC(=O)[C@H](Cc1ccccc1)NC(=O)[C@H](CCC(=O)O)NC(=O)[C@H](C)N)C(C)C)[C@@H](C)O)C(=O)N[C@@H](C)C(=O)N[C@@H](CO)C(=O)N[C@@H](Cc1c[nH]c2ccccc12)C(=O)N[C@@H](CC(=O)O)C(=O)N[C@@H](CO)C(=O)N[C@@H](Cc1ccc(O)cc1)C(=O)O [compound 69] (H-AEFDHFDVGQTLDIASWDSY-OH)							85	-2	73	57	11
CC[C@H](C)[C@H](NC(=O)[C@H](Cc1ccc(O)cc1)NC(=O)[C@H](CO)NC(=O)[C@H](CC(C)C)NC(=O)[C@@H](NC(=O)[C@H](Cc1ccc(O)cc1)NC(=O)[C@H](CCCNC(=N)N)NC(=O)[C@H](CC(=O)O)NC(=O)[C@@H](NC(=O)[C@@H](N)CCCNC(=N)N)[C@@H](C)O)[C@@H](C)O)C(=O)N[C@@H](Cc1c[nH]c2ccccc12)C(=O)N[C@H](C(=O)N[C@@H](CO)C(=O)N[C@@H](CC(=O)O)C(=O)N[C@@H](CCC(=O)O)C(=O)N[C@@H](Cc1c[nH]c2ccccc12)C(=O)N[C@@H](CCSC)C(=O)N[C@@H](CC(C)C)C(=O)N[C@@H](Cc1ccccc1)C(=O)N[C@@H](CC(=O)O)C(=O)O)[C@@H](C)O [compound 115] (H-RTDRYTLSYIWTSDEWMLFD-OH)							99	65	98	70	66
CC[C@H](C)[C@H](NC(=O)[C@H](CC(=O)O)NC(=O)[C@H](CC(=O)O)NC(=O)[C@H](C)NC(=O)[C@H](Cc1ccc(O)cc1)NC(=O)[C@H](CC(C)C)NC(=O)[C@H](CCCNC(=N)N)NC(=O)[C@@H](NC(=O)[C@H](CCC(=O)O)NC(=O)[C@H](CCCCN)NC(=O)[C@H](CCC(=O)O)NC(=O)[C@H](CC(=O)O)NC(=O)[C@H](Cc1c[nH]c2ccccc12)NC(=O)[C@H](CC(=O)O)NC(=O)[C@H](CCSC)NC(=O)[C@H](CCCNC(=N)N)NC(=O)[C@H](Cc1ccccc1)NC(=O)[C@@H](N)C(C)C)C(C)C)C(=O)N[C@@H](CC(C)C)C(=O)N[C@@H](CC(C)C)C(=O)O [compound 146] (H-VFRMDWDEKEVRLYADDILL-OH)						92	90	50	89	65	46
CSCC[C@H](NC(=O)[C@@H](NC(=O)[C@H](CCC(=O)O)NC(=O)[C@H](CC(C)C)NC(=O)[C@@H](NC(=O)[C@H](CCC(N)=O)NC(=O)[C@H](CCC(=O)O)NC(=O)[C@H](CCCNC(=N)N)NC(=O)[C@H](CC(N)=O)NC(=O)[C@H](Cc1c[nH]cn1)NC(=O)[C@@H](N)CCC(=O)O)C(C)C)C(C)C)C(=O)N[C@@H](Cc1ccc(O)cc1)C(=O)N[C@@H](CO)C(=O)N[C@@H](Cc1ccccc1)C(=O)N[C@@H](CCC(N)=O)C(=O)N[C@H](C(=O)N[C@@H](CC(N)=O)C(=O)N[C@@H](CC(=O)O)C(=O)N[C@@H](Cc1ccc(O)cc1)C(=O)N[C@@H](Cc1ccccc1)C(=O)O)C(C)C [compound 154] (H-EHNREQVLEVMYSFQVNDYF-OH)							93	37	79	53	26
CC[C@H](C)[C@H](NC(=O)[C@H](Cc1ccc(O)cc1)NC(=O)[C@@H](NC(=O)[C@H](CC(N)=O)NC(=O)[C@H](CO)NC(=O)[C@H](Cc1ccc(O)cc1)NC(=O)[C@@H]1CCCN1C(=O)[C@H](CC(C)C)NC(=O)[C@@H](N)CO)[C@@H](C)CC)C(=O)N[C@@H](CCC(=O)O)C(=O)N[C@@H](CC(C)C)C(=O)N[C@@H](CC(=O)O)C(=O)N[C@@H](CO)C(=O)NCC(=O)N[C@@H](Cc1ccc(O)cc1)C(=O)N[C@@H](Cc1c[nH]c2ccccc12)C(=O)N[C@@H](CC(N)=O)C(=O)N[C@@H](CO)C(=O)N[C@@H](CCC(=O)O)C(=O)N[C@@H](CO)C(=O)O [compound 155] (H-SLPYSNIYIELDSGYWNSES-OH)							97	61	93	67	53
